The values below come from the RNAGym collection of RNA variant scans (doi:10.1093/nar/gkz1192).

Read counts are not given, so values of variants with three or more changes are uncertain.

Sequences and labels used below:
B1: CPEB3 Ribozyme (parent)
chain: UAACAGGGGGCCACAGCAGAAGCGUUCACGUCGCAGCCCCUGUCAGAUUCUGGUGAAUCUGCGAAUUCUGCUGUAUAUCUC

The variants in the data set derive from B1. The data set is described as follows: self-cleavage, relative activity (ratio to wild type); higher = more cleavage; in vitro, sequencing. An outline of the steps:
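Relative activity compares each variant's cleaved/total read fraction with that of the unmutated ribozyme. To get these fractions, barcoded CPEB3 ribozyme libraries from rounds of error-prone PCR were transcribed with T7 RNA polymerase for 5 hours at 37°C and then given 15 min of DNase I treatment before EDTA was added. The RNAs were reverse transcribed with template switching and sequenced on Illumina, and DNA sequencing linked barcodes to variants. A minimum of 5 reads applied, and three batches were averaged.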
U41C U43C A56U U69G: the self-cleavage was 0.12.

Consider G36U A45G A65G, for which the self-cleavage was found to be 0.37. In the case of C38U U48C U49G, the self-cleavage stood at 0.17. Next, A35U U48C A65G: 0.13; A35G U60C A75U: 1.23. Next, C39U G52U A56G U78C: 0.71; C37U A64G U69A A77G: 0.14. The figure for C37U U43C G73A is 0.85. C37U C44A U72C: the self-cleavage was 0.11.

As to C39A A64G U72C, the self-cleavage came to 0.17. The figure for C39U G46A U54A U58C A64G is 0.06; for A35U A57G U72C it is 0.54. Next, U41A A64U G73U: 0.26.

For C37U U54C U66A, the self-cleavage worked out at 0.17. Next, A35U A47G U49C U51C U60C G63U U69C: 0.09.

With C40A A56G A77U, the self-cleavage came to 0.09. Regarding C39A U48C A64G, the self-cleavage turned out to be 0.15. The figure for A35G U43G A56U A64U A77U is 0.06; for A35U U41A C68G U69C it is 0.1; for U41A A65G U72C U74C it is 0.21. For the variant A35G U72C U74C, the self-cleavage stood at 1.39. For U41C A45G U66C, the self-cleavage came to 0.49. Turning to A35U C38U U60C A75G, the self-cleavage was found to be 0.06. Take U41A U48C A56G U60A: the self-cleavage was determined as 0.16. U41C U43C A57U: the self-cleavage was found to be 0.15. Turning to C40U A47U U49C, the self-cleavage turned out to be 0.45. Regarding A35G U66C U74C, the self-cleavage came to 1.37.

A35U U51A G53U U80C: the self-cleavage worked out at 0.75.

As for A35U U58C C59A, the self-cleavage was 0.09. Next, A35U U54C U72C U76C: 0.08; C39G U41C A57G: 0.75; C40A A45G U51C U66C: 0.13. On to C39U U41A A57G U60A A64G U67C U74A, for which the self-cleavage stood at 0.07.

On to C38U U43C U49A U67C, for which the self-cleavage stood at 0.07. Next, U41A G42A U43C U48A: 0.21; A35U U43C U54C U69C U78A: 0.07; C40U A45G G46U U72C: 0.1. The figure for A35U U60G U66C G73A is 0.21. Next, U41C U43C U49C A57U U60A A65G: 0.07. On to U41A G61C U80C, for which the self-cleavage turned out to be 0.11. Next, C39A U51C U69C C71U: 0.12. For C39U A56G A57U U58C A64G U74C, the self-cleavage was 0.06. The figure for U41A A47G G52U is 0.26; for C38U C40U U54A A64G U67C it is 0.18. Next, U41A U43G U58G: 0.26. As to G36C U41A A65G, the self-cleavage came to 0.17. The figure for A35U G36C A56G A75U is 0.11; for A35U U67A U72C it is 0.14.

In the case of U41C C50U U60A U80C, the self-cleavage was determined as 0.47. The figure for C38U U41C U80G is 1.17; for U41C A64G U80C it is 0.89; for U41C A64G U80A it is 0.92. Regarding A35U U48C U66C U67C, the self-cleavage was 0.13. As for A35U U66A U78A, the self-cleavage is 0.14. Next, A35U G53A U72C: 0.69; A35G U69C U72C: 1.05; A35G U54A A65C C68A: 0.59. The figure for U41A A56U U58C A65U A75G is 0.14; for C38A A57G U80A it is 0.1; for G36U C40U U54C A64G C71G U76A it is 0.05. Next, U41A A47U U51C A56G A64G U66G: 0.09.

On to U41A U51C A64G U67A, for which the self-cleavage was determined as 0.22.

As to A35U A75G U80A, the self-cleavage turned out to be 0.44. Next, U41C A47U U48C: 0.08; C40A A56U A57G G70C: 0.08; C39G U43C U51C U67C U69G U72C U76C: 0.11.

As for U41C U43C A47G U69A U78C, the self-cleavage came to 0.13. Turning to A35U U54C U74C U78C, the self-cleavage turned out to be 0.91. Next, A35U U54C U66C: 0.08; A35U U49C U60C: 0.09; A35U G36U C59U: 0.11. The figure for A35U C40A U51C U69C is 0.05.

Take U41C A45G U48C A57G A64G A65G C68A: the self-cleavage amounted to 0.03. The figure for A35U A45U G63U U74C is 0.4; for A35G U48C G55C it is 1.11; for C38A C40A U69G U80A it is 0.17.

Consider C37U G42C U66C, for which the self-cleavage was determined as 0.1. Next, U41C A47G A57U: 0.43; U41C A47G A57G: 0.88; A35U G53U A57G A65G U74C: 0.35.

For C39U U58A C59U, the self-cleavage was 0.17. The figure for C38U U48C A65G is 0.17; for C40U U41C A65U it is 0.31; for U41C A57G U66G it is 0.3. Next, C39U A64G U66C: 0.13; C39A U43A U49C U69G: 0.06; A35U U54C U60C U66C: 0.15. Next, A35U A45G U72A A75G: 0.41; C38U C39U U43C A57G C71A: 0.06. In the case of U41A A56U U58A U66C U72C U78C, the self-cleavage was 0.16. The figure for U41C A47G U80C is 0.96; for G36U U51A U72A U80C it is 0.18; for C38A U41A A56G A57G A64U U76C it is 0.05. Regarding A35U U48C A77G, the self-cleavage came to 0.12. The figure for C39A A64U U72A is 0.13; for A35U U48C A57G C59G U72C it is 0.21. Next, U41A G55A U66C: 0.08; A35U U43A U67C: 0.32; C37A U51A U54C U58A: 0.14. Next, G36U U67G U78C: 0.09; C38U A45G A75G U80C: 0.17. With C40U C44U A75G U78C, the self-cleavage is 0.11. The figure for U41C G73A U74C is 1.21; for U41A U58C U69C it is 0.27. The figure for U41C A56G U66C U69A is 0.27; for A35U A57G A64U U69C it is 0.09; for A35U U41C A65G U67C it is 0.12. Next, A35U G53A A65G: 0.14; A35G U48C U69C U72C: 0.55. For C40U U41A A47G, the self-cleavage is 0.21. Next, U41C A47G U51C: 0.7; A35U A56U G63A: 0.25; U41A A56G C62U U67G: 0.3.

Consider C37U U43C U76C U80C, for which the self-cleavage came out at 0.12. As for C38U U67A U72C A75G, the self-cleavage is 0.22. C37A A65G U67C U80A: the self-cleavage was 0.06. Next, A35U U41C A47G G55U U72A: 0.16; U41A A65U U66C U74C: 0.14; U41A U54C U78C: 0.18. Next, U41A A56G U69C: 0.19; G36U U43A A45G: 0.12; C38G U43A A45G A64U G73A U80C: 0.05.

Turning to C40G U43C A77U, the self-cleavage amounted to 0.27. The figure for C37A C39A A47G U54C is 0.09; for A35G U48C U49C U74C it is 1.09; for C39A U43C U78C it is 0.17. The figure for A35G U69G U78C is 1.2.

For the variant C39U U49A U51A, the self-cleavage amounted to 0.26. For the variant U41C U43A U58C, the self-cleavage stood at 0.37. Next, A35U U58G A64U: 0.1.

In the case of C40U U41A U51A U80C, the self-cleavage is 0.13. The figure for A35U U43C A56G A64G is 0.17; for A35U U43C A56U it is 0.11; for C40U A45G U66G U78C it is 0.15.

For the variant A35G U67A U78C, the self-cleavage is 1.24. Turning to U41A U43C G53A U58C U72C A77C C81U, the self-cleavage came out at 0.12. The figure for A35G U60C U69A U76A is 0.56. The figure for A35U A45U A56G U80C is 0.08; for U41C A56G U67C it is 0.19. The figure for A35U G36C U43A A47G U49C is 0.06; for U41C C50G G61A A65G it is 0.17. As to A35U A45U U51A C71G, the self-cleavage turned out to be 0.11. As for G36C C71U U74C, the self-cleavage came out at 0.1.

With A35G U69A U72C, the self-cleavage came to 1.1. Next, C37A A45G U49C U66C: 0.16. Regarding U41A C50A A56G, the self-cleavage turned out to be 0.11.

Consider C39A U49C A64U, for which the self-cleavage came out at 0.14.

On to C40A C44U A45G A47G G61U U72A, for which the self-cleavage was found to be 0.28. Take U41A U51C U66G: the self-cleavage is 0.23. Next, U41C A47G C79A U80C: 1.29.

For the variant U41C A47U A64G, the self-cleavage is 0.53.

U41A U72C U74C: the self-cleavage was 0.63. The figure for A35U U54A U58C U74C is 0.5.

On to C39A U51C U58A, for which the self-cleavage is 0.1. Next, U41A A56U A57G: 0.16; A35U C40A A65G U66A: 0.16. Regarding C37A U49C U58A U66C A75G U80C, the self-cleavage was determined as 0.03.

Regarding C40U A45G G52A, the self-cleavage was determined as 0.84. The figure for U41A C71A U74C is 0.12. The figure for A35U U41A A64U G70A is 0.15. Next, C37U A56G U66C: 0.37; U41A C62G U69C: 0.13; U41C A64G U72A: 0.62. For U41C U43A A45U G52A U60C, the self-cleavage worked out at 0.28.

As to C39U U43C U60C, the self-cleavage came out at 0.16. G36C U43C U78C U80C: the self-cleavage worked out at 0.15.

With C37A U54C A56G, the self-cleavage was found to be 0.36.
